Experimental data taken from the supplement of paper PMC4166925.
± gives the standard deviation of the averaged measurements. The full ranking holds about 33,000 sequences; the median of “E-score (dimensionless, -0.5 to 0.5)” is about -0.046, and the highest 2% start at about 0.36. This is one part of the list.

system: T1, SpTbr T-box DNA-binding domain (GST fusion); assay: PBM E-score of 8-mer (E-score (dimensionless, -0.5 to 0.5)); Tbr is Tbrain of the sea star Patiria miniata (Pm) or the sea urchin Strongylocentrotus purpuratus (Sp); higher = stronger binding preference; most listed sequences are background and not binding sites; details: the construct has about 5 more residues each side
T1 sequence: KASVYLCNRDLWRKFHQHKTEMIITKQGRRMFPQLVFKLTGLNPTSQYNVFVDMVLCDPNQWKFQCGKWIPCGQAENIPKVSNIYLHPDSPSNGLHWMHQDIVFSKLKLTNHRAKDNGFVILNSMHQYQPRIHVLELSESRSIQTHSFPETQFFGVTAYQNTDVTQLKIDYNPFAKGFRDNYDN
Outline: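 Using the Universal PBM Analysis Suite, every ungapped 8-mer received an enrichment E-score averaged over duplicate arrays. Probe intensities came from double-stranded Universal Agilent oligonucleotide arrays incubated with 200 nM GST-fused Tbr T-box DNA-binding domain in PBS (pH 7.5). That protein was expressed in BL21 E. coli at 20 °C and purified by glutathione affinity chromatography.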

Sequence	PBM E-score of 8-mer
CTGGCATA	0.0157 ± 0.043
TCTAGTCA	-0.149 ± 0.043
CACCACGC	0.131 ± 0.015
CAACGAGG	-0.0693 ± 0.0018
CATAAGCC	-0.192 ± 0.047
CCGCGGTA	-0.167 ± 0.022
CAACGAGA	-0.0903 ± 0.04
GCTCTTAC	-0.264 ± 0.04
TGCTCAAA	0.017 ± 0.039
AAGCCACT	-0.0439 ± 0.018
ACCCCTCC	0.128 ± 0.0024
ACGAGACT	-0.054 ± 0.066
CTAGCAAA	0.0704 ± 0.029
AAGGAGAT	-0.0983 ± 0.019
ACCCTACA	-0.0616 ± 0.0058
CCGCAGGC	-0.0492 ± 0.029
CATTCGAC	-0.136 ± 0.026
AAGCAGAA	-0.0601 ± 0.054
AATTGGGC	-0.197 ± 0.043
CCTAGTGC	0.0674 ± 0.05
AGACAGTA	0.0382 ± 0.012
AGGGGTAG	0.0405 ± 0.049
GATTTTCA	-0.137 ± 0.0079
GAAAGCTA	0.0619 ± 0.019
AACGTCTG	-0.221 ± 0.082

Sequence	PBM E-score of 8-mer
AATATCAT	-0.161 ± 0.0081
ACTCAACT	-0.0287 ± 0.011
TCCACAAA	0.0699 ± 0.025
AATCCTAA	-0.221 ± 0.074
ACGATTTA	0.00131 ± 0.068
GGAATCCA	-0.107 ± 0.021
GGTAACGA	0.111 ± 0.056
ACGTATGA	0.0677 ± 0.042
CTACGGCC	-0.3097 ± 0.0024
CGTTCCCC	-0.0603 ± 0.012
TGAATGCA	-0.1842 ± 0.00048
CGGGGCAC	-0.237 ± 0.038
CCGGAATC	-0.213 ± 0.029
CACCCACA	0.324 ± 0.021
CCACGGGA	-0.1125 ± 0.00013
GATTATCC	-0.106 ± 0.0078
AGGTACAC	-0.217 ± 0.066
TAGACCCA	-0.101 ± 0.067
AGGAAGGG	-0.219 ± 0.044
CTCTAGCA	0.129 ± 0.066
AATCTTGG	-0.244 ± 0.014
CGGCCGTA	-0.207 ± 0.021
ACTGTAGC	-0.069 ± 0.049
AAAAAAAA	0.103 ± 0.05
CCGCCAGG	-0.168 ± 0.12

Sequence	PBM E-score of 8-mer
CAGTGAGC	-0.0103 ± 0.11
TCCTCCCA	-0.194 ± 0.047
ATGGTACA	-0.17 ± 0.062
AGGGGTTG	-0.0856 ± 0.05
TGCGACAA	0.271 ± 0.022
GAAGAAGC	-0.0322 ± 0.014
ACCCGAAC	-0.0199 ± 0.021
CGCCCCCA	-0.0639 ± 0.047
GCTACTAA	0.0806 ± 0.056
ATAGCATA	0.0174 ± 0.034
GCCGGGGA	-0.173 ± 0.018
GGAGCCAA	0.0118 ± 0.093
AACGCGGA	0.0514 ± 0.021
ATTAGGGG	-0.226 ± 0.009
CGGTCCCA	0.059 ± 0.0037
CCGGCGAA	-0.221 ± 0.0083
AATCCGGG	-0.0392 ± 0.026
ACCCTGTC	0.151 ± 0.019
AGTAAGTA	-0.0475 ± 0.018
CTCTCCCC	-0.129 ± 0.015
CGTCACGA	0.14 ± 0.056
CGGCTACA	-0.0194 ± 0.0012
GCTTTTCA	0.209 ± 0.015
AGGCACTC	0.063 ± 0.032
AATAGATA	-0.0733 ± 0.032

Sequence	PBM E-score of 8-mer
GTCACGTA	0.198 ± 0.037
CTCGCGAG	0.284 ± 0.03
AATGTTGT	0.148 ± 0.074
GGAGCCAC	-0.0195 ± 0.081
ACTATTAT	-0.0641 ± 0.024
ACTGGTTC	0.0539 ± 0.022
CCGCTGCG	0.0202 ± 0.025
ATGGTCTC	-0.0511 ± 0.022
ATCGAGCA	-0.223 ± 0.036
CGCAGGCA	-0.123 ± 0.019
ATACGTAA	0.0076 ± 0.052
CCAACCAG	-0.16 ± 0.024
CAAATGGG	-0.0206 ± 0.047
CACGCCGA	0.107 ± 0.042
CCGACACG	0.253 ± 0.034
ATGGGTGA	0.0601 ± 0.094
CTCTCTAC	-0.0769 ± 0.028
GGGCACCA	-0.0922 ± 0.092
CGGTCGCA	0.291 ± 0.025
GTTCCACA	0.121 ± 0.13
TATACCAA	0.0352 ± 0.047
AGTTCTCA	0.323 ± 0.011
CGGCGAAG	-0.11 ± 0.091
GTATTGAA	-0.137 ± 0.036
AAAAAATA	-0.00716 ± 0.07

Sequence	PBM E-score of 8-mer
TCTGGCAA	-0.143 ± 0.019
GCTATCAA	0.0426 ± 0.018
AGGTTATG	0.0667 ± 0.015
CGCGCGTA	0.324 ± 0.018
AACAAATC	0.216 ± 0.048
GTCTACCA	-0.0512 ± 0.025
TGTCTCAA	0.00493 ± 0.0047
AGCTCGAT	-0.0805 ± 0.035
GATCTGGA	-0.0722 ± 0.016
GAAGCTAA	0.048 ± 0.042
GCTACTCC	-0.00537 ± 0.051
CTGTAAAA	-0.00306 ± 0.069
ACAGTATA	-0.0861 ± 0.017
GGCATCTA	-0.107 ± 0.004
GGACGTCA	-0.105 ± 0.021
ATTCTTAG	-0.304 ± 0.03
ACAAACTA	-0.132 ± 0.066
ACACCCTG	0.415 ± 0.024
AATTCTCG	0.138 ± 0.035
CCCCCGTC	-0.167 ± 0.12
GGCATGAA	0.00385 ± 0.053
AGAACGCC	0.0924 ± 0.02
AATGTAAT	-0.102 ± 0.013
CCGCGTCC	0.0057 ± 0.044
GATTAACC	-0.0771 ± 0.011

Sequence	PBM E-score of 8-mer
AATGCAAA	-0.166 ± 0.078
ACGGCAAC	0.104 ± 0.051
GATTATGC	-0.271 ± 0.039
GATATAAA	-0.141 ± 0.06
AAGAACCT	-0.239 ± 0.076
CCCGAGCG	-0.0873 ± 0.051
CGTTGAGA	0.142 ± 0.022
ACAACTTG	0.284 ± 0.02
AGGCTTTC	0.0343 ± 0.046
CCTAATGA	-0.208 ± 0.12
ACTATTGG	0.0761 ± 0.0044
CTATGTCA	0.164 ± 0.0033
ACACCACA	0.364 ± 0.017
ACCCTTGC	0.00159 ± 0.011
GTAATTAA	-0.0742 ± 0.051
GGTATCTA	-0.331 ± 0.011
CTAACGTA	-0.149 ± 0.076
AGAGTGAC	0.145 ± 0.013
ACGCTCTC	0.0889 ± 0.032
TCATATGA	-0.222 ± 0.034
AAGCAGCC	-0.1561 ± 0.0003
GGAAACGA	0.136 ± 0.07
AACCGGTT	0.097 ± 0.069
AATGCCAT	-0.0961 ± 0.0098
TCCGCCGA	-0.00696 ± 0.084

Sequence	PBM E-score of 8-mer
AGAATTAA	-0.0399 ± 0.14
CAGGTCAG	-0.101 ± 0.015
GCAGGTCA	0.036 ± 0.077
AACCGGGT	-0.0581 ± 0.069
ACACAGAA	-0.134 ± 0.016
TATCCAGA	-0.377 ± 0.015
CCGGGCCG	-0.286 ± 0.037
AACAGAAC	-0.104 ± 0.0089
CACCTTAC	0.413 ± 0.017
AGGCTCTG	-0.186 ± 0.052
TAGAAGGA	-0.284 ± 0.018
ACACATGA	0.251 ± 0.012
ATAGCGTG	0.11 ± 0.019
ATTGATTC	-0.0102 ± 0.024
AAATGGTG	0.121 ± 0.0048
TCAACTGA	0.103 ± 0.0029
AGGATAGC	-0.2131 ± 0.00059
ACCGTCTG	-0.035 ± 0.066
ATAGGTGC	0.412 ± 0.012
TCGTAGAA	-0.27 ± 0.026
AGGCATAG	-0.272 ± 0.04
CATTACAG	-0.0811 ± 0.0099
